Laboratory results taken from a compilation of properties of binary mixtures (doi:10.1016/j.jct.2020.106366).
Some of these densities may be calculated back from excess volumes.

Assay: xn = mol fraction of the nth substance listed
Settings: 100 kPa

CCCCCC[n+]1ccccc1.O=C([O-])C(F)(F)F + O
mass density [kg/m3]
Settings | x1 = 0.8314 | x1 = 0.8573 | x1 = 0.8883 | x1 = 0.9008 | x1 = 0.9309 | x1 = 0.9629
293.15 K | 1263.1 | – | 1273.3 | 1274.9 | 1279.9 | 1284.1
298.15 K | 1259.2 | 1264.8 | 1269.4 | – | 1276 | 1280.2
303.15 K | 1255.4 | – | 1265.7 | 1267.2 | 1272.3 | 1276.4
308.15 K | – | 1257 | – | – | 1268.3 | 1272.4
313.15 K | 1247.3 | – | 1257.6 | – | 1264.2 | 1268.3
318.15 K | 1243.4 | – | 1253.6 | 1255.2 | – | 1264.4
323.15 K | 1239.4 | 1245 | 1249.6 | 1251.2 | 1256.2 | 1260.4
328.15 K | 1235.6 | 1241.2 | 1245.9 | 1247.4 | 1252.5 | 1256.6
333.15 K | 1231.8 | 1237.4 | – | 1243.6 | 1248.7 | 1252.8
338.15 K | 1227.8 | 1233.4 | 1238.1 | 1239.6 | 1244.7 | 1248.8
343.15 K | 1224.4 | 1230 | 1234.7 | 1236.2 | – | 1245.4

CCCCC[n+]1ccccc1.O=C([O-])C(F)(F)F + O
mass density [kg/m3]
Settings | x1 = 0.8375 | x1 = 0.8691 | x1 = 0.8805 | x1 = 0.9227 | x1 = 0.9446 | x1 = 0.9743
293.15 K | 1313.6 | 1315.1 | 1315.8 | 1318.3 | 1319.9 | 1321.4
298.15 K | 1310.6 | 1312.4 | – | 1315.3 | 1316.2 | 1317.6
303.15 K | 1306 | 1307.4 | 1308.1 | – | – | 1313.4
308.15 K | 1301.7 | 1303.3 | 1304.1 | 1306.2 | – | 1309.4
313.15 K | – | 1299.3 | 1299.9 | 1302.5 | 1303.6 | 1305.2
318.15 K | 1293.8 | 1295.2 | 1295.9 | 1298.4 | 1300 | 1301.5
323.15 K | 1289.9 | – | 1292 | 1294.4 | – | 1297.2
328.15 K | 1284.9 | – | 1287.5 | 1289.9 | 1291.3 | 1292.7
333.15 K | 1280.8 | – | 1283.2 | 1285.7 | – | 1288.8
338.15 K | 1277.2 | 1279 | 1279.6 | 1282 | – | 1284.8
343.15 K | – | 1274.6 | – | 1277.7 | 1279.1 | 1280.7

CCCC[n+]1ccccc1.O=C([O-])C(F)(F)F + O
mass density [kg/m3]
Settings | x1 = 0.8635 | x1 = 0.8873 | x1 = 0.8962 | x1 = 0.917 | x1 = 0.9289 | x1 = 0.9691
293.15 K | 1339.1 | 1343 | 1344.5 | 1347.8 | 1349.7 | 1355.6
298.15 K | 1334.4 | – | 1340 | – | 1345.3 | 1351.4
303.15 K | 1330.6 | 1334.7 | 1336.1 | 1339.5 | – | 1347.3
308.15 K | 1327.7 | 1330.8 | 1332.6 | 1335.9 | 1338 | 1343.7
313.15 K | 1322.3 | 1326.2 | – | 1331.1 | 1333 | 1339
318.15 K | 1318.5 | – | – | 1327.1 | 1329.1 | 1334.9
323.15 K | 1314.5 | – | 1319.7 | 1323.1 | 1325.2 | 1330.9
328.15 K | 1310.3 | 1314.1 | 1315.9 | 1319.2 | – | 1326.9
333.15 K | 1306.1 | 1310 | 1311.7 | 1315 | 1317 | 1322.7
338.15 K | 1302.1 | 1305.7 | 1307.3 | 1310.8 | 1312.7 | –
343.15 K | 1297.5 | – | 1303.3 | – | 1308.6 | 1314.3

CCC[n+]1ccccc1.O=C([O-])C(F)(F)F + O
mass density [kg/m3]
Settings | x1 = 0.8621 | x1 = 0.8919 | x1 = 0.9091 | x1 = 0.9269 | x1 = 0.9443 | x1 = 0.961
293.15 K | 1377.7 | 1381.5 | 1383.3 | 1385.1 | 1386.5 | 1387.9
298.15 K | 1374.1 | 1377.8 | 1379.6 | 1381.6 | 1382.9 | 1384.4
303.15 K | – | 1374.6 | 1376.2 | 1377.9 | – | 1381
308.15 K | 1365.3 | 1369 | 1370.9 | 1372.7 | 1373.9 | –
313.15 K | 1363.2 | 1366 | 1367.6 | 1369.7 | 1371.1 | 1372.7
318.15 K | 1357.6 | 1361.5 | 1363.2 | 1365 | 1366.5 | 1368.1
323.15 K | – | – | 1359.5 | 1361.3 | 1363 | –
328.15 K | – | 1353.7 | 1355.3 | 1357.1 | 1358.7 | –
333.15 K | 1346.7 | 1350.2 | – | 1353.8 | 1355.1 | –
338.15 K | 1344.1 | 1347.4 | 1349 | – | 1352.1 | 1353.2
343.15 K | 1340.2 | – | 1345 | 1346.7 | 1348.4 | 1349.9

CC[n+]1ccccc1.O=C([O-])C(F)(F)F + O
mass density [kg/m3]
Settings | x1 = 0.8779 | x1 = 0.8977 | x1 = 0.9109 | x1 = 0.9267 | x1 = 0.9632 | x2 = 0.0181
293.15 K | – | – | – | 1414.2 | 1417.1 | –
298.15 K | 1404.4 | 1406.7 | 1408.5 | 1410.1 | 1413 | 1415.1
303.15 K | – | 1402.7 | 1404.7 | 1406.3 | 1409.3 | 1411.3
308.15 K | 1396.4 | 1398.6 | 1400.5 | 1402.2 | 1405 | 1407.3
313.15 K | 1392.7 | 1394.9 | 1396.8 | 1398.4 | 1401.4 | 1403.5
318.15 K | 1389.3 | 1391.5 | 1393.5 | – | 1397.9 | 1400.1
323.15 K | – | – | – | 1391.2 | 1394 | –
328.15 K | 1381.2 | 1383.4 | 1385.4 | 1386.9 | 1389.8 | 1392
333.15 K | – | 1379 | 1381.1 | 1382.6 | 1385.4 | 1387.7
338.15 K | – | 1374.8 | 1376.6 | 1378.5 | 1381.2 | –
343.15 K | 1368.7 | 1370.4 | 1372 | 1373.9 | 1376.9 | 1379.1
